In all, about 110,000 compounds went through this assay and about 40 (0.04%) were called active. This list was built around the results that the source calls inconclusive (neither active nor inactive); the mix of calls is not that of the screen. The call rests on the fitted dose curve; in most records, active means well fitted curve in the direction sought with a large enough effect in the signal ratio (not every such curve was filed as active); inconclusive means small, poorly fitted or top-dose-only effect, or a change in a side signal; inactive means flat fitted curve, though single readings scatter; the % refers to the signal ratio. Potencies beside an inconclusive call are fits to weak or partial responses and may not hold up.
Experiment: IkB Signaling;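 on IkBa stabilization activation: 0% = basal untreated cells and 100% = reference inhibitor full response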
Conditions: ABC-DLBCL IkBa-CBG/CBR dual luciferase ratio (green luciferase fused to IkBa over red control in OCI-Ly3 lymphoma cells), 4 h; IkBa stabilization activation: at 57.1 µM (top of the series), scaled: untreated 0%, proteasome inhibitor 100% unless noted
Procedure, shortened: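 In this assay, an IκBα–CBG68 fusion accumulates when IKK-driven degradation is blocked; native CBR normalizes for cell number. OCI-Ly3 cells were treated 4 h with compound and doxycycline, then green and red light read after Chroma-Glo addition.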
Potency means the concentration at half of the fitted maximal effect.

SMILES	IkBa stabilization activation	Potency
Cc1ccc(NC(=O)C2CCCN(c3ncnc4onc(C)c34)C2)cc1Cl (centres undefined)	inactive	–
COc1cccc(C(=O)OCn2nnc3ccccc3c2=O)c1OC	inactive	–
COc1cccc(NC(=O)Nc2cccs2)c1	inactive	–
O=C(c1ccccc1)c1ccc2nc(N3CCN(c4ccc(F)cc4)CC3)c3nncn3c2c1	inconclusive: 3.82% [signal inhibitor]	–
COc1ccccc1-c1cc2nc(C)c(CCC(=O)NC3CCCCC3)c(C)n2n1	–	inconclusive: 10 µM [signal inhibitor]
Cc1ccc(-c2nc(CNC(=O)NC3CCCCC3)c(C)o2)cc1	inconclusive: -1.39% [signal inhibitor]	–
CC(=O)c1cccc(NC(=O)Nc2cc3c(cc2N2CCCC2)n(C)c(=O)n3C)c1	–	inconclusive: 20 µM [signal activator]
CCc1ccc(C(=O)Nc2cccc(-c3nc4cc(C(C)C)ccc4o3)c2)cc1	–	inconclusive: 2 µM [signal inhibitor, partial curve]
OC[C@@H]1O[C@@H](N2CCN([C@@H]3O[C@@H](CO)[C@@H](O)[C@H](O)[C@H]3O)CC2)[C@@H](O)[C@H](O)[C@H]1O	inactive: 0.587% [at 11.4 µM, scaled: untreated 0%, proteasome inhibitor 100%]	–
CCn1c(=O)c(C(=O)NCCc2ccccc2)c(O)c2ccccc21	inconclusive: 4.81% [signal inhibitor]	–
Cc1ccc(C2=[N+]([O-])C3(CCCCC/C3=N\O)N(O)C2(C)C)o1 (centres undefined)	inactive	–
COc1ccc(NC(=O)c2nnn(CC(=O)Nc3cc(C)cc(C)c3)c2N)c(OC)c1	inactive	–
COc1ccc(Cn2c(SCc3ccc(C(=O)NCc4cccs4)cc3)nc3ccncc32)cc1	inconclusive: 2.06% [signal inhibitor]	–
CCCCC(=O)Nc1ccc(C(=O)OCc2cc(=O)n3ccsc3n2)cc1	inactive	–
O=C(CCCn1c(=O)[nH]c2ccsc2c1=O)N1CCN(c2ccc(Cl)cc2)CC1	–	inconclusive: 25.1 µM [signal inhibitor, single point]
O=C(CSc1nnc(-c2ccc(Cl)cc2)c(-c2ccc(Cl)cc2)n1)NC1CCCC1	inconclusive: 0.694% [signal inhibitor]	–
CCOC(=O)c1c(C)[nH]c(C)c1S(=O)(=O)N(C)CC(=O)N1CCN(c2cccc(Cl)c2)CC1	inconclusive: -2.69% [signal inhibitor]	–
Cc1cc(C)cc(NC(=O)Cn2c(=O)n(CC(=O)NCCc3ccccc3)c(=O)c3ccccc32)c1	inconclusive: 8.35% [signal inhibitor]	–
COc1ccc(C(=O)Nc2nnc(SCc3cc(=O)n4cc(Cl)ccc4n3)s2)cc1	inconclusive: -0.0126% [signal inhibitor]	–
Cc1ccc(C(=O)c2cn(Cc3c(F)cccc3Cl)c3nc(C)ccc3c2=O)cc1	inconclusive: 3.52% [signal inhibitor]	–
Cc1cccc(NC(=O)Nc2cccc(C#N)c2)n1	inconclusive: -6.46% [signal inhibitor]	–
CCCCc1nn2c(=O)cc(COC(=O)c3cccs3)nc2s1	inconclusive: 9.99% [signal inhibitor]	–

SMILES	IkBa stabilization activation	Potency
Cc1ccc(NC(=O)CSC2=C(C#N)C(c3ccco3)C3=C(CC(C)(C)CC3=O)N2)cc1 (centres undefined)	inconclusive: 1.44% [signal inhibitor]	–
Clc1cccc(-n2ncc3c(N4CCCCCC4)ncnc32)c1	inconclusive: 0.974% [signal inhibitor]	–
CCOC(=O)C1=C(c2ccccc2)NC(=O)NC1c1ccc(OCC#N)c(OC)c1 (centres undefined)	inactive	–
CCn1c(SCC(=O)NCc2ccccc2)nc2ccccc2c1=O	inactive	–
Cc1cc(C(=O)N2CCN(c3cc(Cl)ccc3C)CC2)c2c(C)nn(-c3ccccc3)c2n1	inconclusive: -1.12% [signal inhibitor]	–
Cc1ccc(CNC(=O)c2cccc(Nc3nc4ccccc4n4nnnc34)c2)cc1	–	inconclusive: 3.16 µM [signal inhibitor, full curve]
Cc1ccc(-c2nnc3c4ccccc4c(C)nn23)cc1S(=O)(=O)N1CCN(C)CC1	inactive	–
O=C(Nc1nncs1)c1ccccc1Br	inactive	–
Cc1ccc(NC(=O)Cn2ncn3c(cc4ccccc43)c2=O)cc1C	inactive	–
Cn1c(CCNC(=O)c2ccco2)nc2cc(NC(=O)C3CCCCC3)ccc21	inconclusive: 5.66% [signal inhibitor]	–
COc1cc(OC)c(NC(=O)c2c(C)oc3ncnc(N4CCCCC4)c23)cc1Cl	inconclusive: 2.91% [signal inhibitor]	–
COc1cccc(Nc2ncc3ncc(=O)n(Cc4cccs4)c3n2)c1	inconclusive: -13% [signal inhibitor] [at 11.4 µM, scaled: untreated 0%, proteasome inhibitor 100%]	–
COc1ccc2c3c(ccc2c1)N[C@H](C(=O)O)CC3	inactive: -2.27% [at 11.4 µM, scaled: untreated 0%, proteasome inhibitor 100%]	–
Cc1ccc2c(c1)sc1nc(-c3cc4cc(Cl)ccc4oc3=O)cn12	inactive	–
CCc1oc2ccccc2c1C(=O)CCN1CCCCC1	inconclusive: 8.82% [signal inhibitor]	–
O=C(c1ccco1)N1CCN(C(c2cccs2)c2sc3ncnn3c2O)CC1 (centres undefined)	inconclusive: 8.49% [signal inhibitor]	–
CCC(C(=O)NCc1ccc2c(c1)CCN2C(=O)c1ccc(F)cc1)c1ccccc1 (centres undefined)	inconclusive: 0.81% [signal inhibitor]	–
CC1=C(C(=O)Nc2ccccc2)C(c2ccc3c(c2)OCO3)C2=C(CCCC2=O)N1 (centres undefined)	inactive	–
CCOC(=O)/C=C/S(=O)(=O)c1ccc(NC(C)=O)cc1	inconclusive: 4.68% [signal inhibitor]	–
CCOc1ccc(C(=O)NCCn2cc(SCC(=O)Nc3cc(C)on3)c3ccccc32)cc1	inconclusive: -0.23% [signal inhibitor]	–
CCOc1ccc(CCNC(=O)c2cc(Nc3ccc(C)cc3C)nc3ccccc23)cc1OCC	inactive	–
Cc1n[nH]c(C)c1N1C(=O)c2cccc3c(N4CCCCCC4)ccc(c23)C1=O	inconclusive: -4.46% [signal inhibitor]	–

From PubChem BioAssay AID445 (National Center for Advancing Translational Sciences (NCATS), 2006)
